# Test results as given in PubChem BioAssay AID588342 (National Center for Advancing Translational Sciences (NCATS), 2011).
# Hit rate of the full screen: of about 360,000 compounds, about 25,000 (6.9%) were called active. This list was built around the results that the source calls inconclusive (neither active nor inactive); the mix of calls is not that of the screen. Calls follow the shape of the dose curve; as a rule, active = well fitted inhibition curve with a large enough effect; inconclusive = small, poorly fitted or top-dose-only effect; inactive = flat fitted curve, though single readings scatter. A potency beside an inconclusive call is a rough fit, not a confirmed value.
# Biological target: Luciferin 4-monooxygenase (Photinus pyralis) (UniProt P08659)
# Sequence of UniProt P08659 (P08659 whole entry, looked up): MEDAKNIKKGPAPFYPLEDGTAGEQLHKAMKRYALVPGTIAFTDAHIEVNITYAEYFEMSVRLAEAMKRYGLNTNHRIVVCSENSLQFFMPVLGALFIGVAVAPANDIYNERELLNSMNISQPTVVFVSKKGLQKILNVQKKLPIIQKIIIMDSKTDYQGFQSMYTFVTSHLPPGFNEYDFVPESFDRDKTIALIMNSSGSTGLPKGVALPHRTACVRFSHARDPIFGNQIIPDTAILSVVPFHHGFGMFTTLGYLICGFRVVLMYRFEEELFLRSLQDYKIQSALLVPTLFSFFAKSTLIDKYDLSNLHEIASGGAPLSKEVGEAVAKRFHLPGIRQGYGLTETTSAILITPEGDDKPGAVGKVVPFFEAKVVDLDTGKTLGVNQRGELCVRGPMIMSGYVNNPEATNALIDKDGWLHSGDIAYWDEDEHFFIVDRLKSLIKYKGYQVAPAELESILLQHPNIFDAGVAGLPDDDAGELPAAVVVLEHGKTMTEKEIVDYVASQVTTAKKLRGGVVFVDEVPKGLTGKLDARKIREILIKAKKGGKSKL
# Experiment: qHTS profiling assay for firefly luciferase inhibitor/activator using purifed enzyme and Km concentrations of substrates (counterscreen for miR-21 project); also: nearly all actives have a fitted effect of over 55% in size;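 as to activity change, negative = inhibition: plate controls were vehicle for no effect and reference inhibitor for full effect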
# Conditions: purified FLuc, luminescence inhibition; activity change, negative = inhibition: at 57.5 µM (top of the series)
# Summary of the method: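 Purified P. pyralis luciferase, 10 nM final, with Km-level 10 uM D-luciferin and 10 uM ATP in 50 mM Tris acetate pH 7.5, 10 mM Mg acetate, 0.01% Tween-20, 0.05% BSA; 6-point qHTS titration about 60 µM downward; luminescence read.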
# Potency is read from the fitted curve at half-maximal effect; tags tell the direction and shape of the fitted curve.
Structure (SMILES),Potency,"activity change, negative = inhibition"
O=C1CCCC(O)=C1N=Nc1ccc2ncsc2c1,"inconclusive: 26.9 µM [inhibitor, single point]",–
Cc1ccc(N2C(=O)S/C(=C/c3cn(C)c4ccccc34)C2=O)cc1,"inconclusive: 4.78 µM [inhibitor, full curve]",–
COC(=O)c1c(NC(=O)CCCOc2ccc(C)cc2)sc2c1C(C(=O)OC)CC2 (stereo not given),"inconclusive: 10.7 µM [inhibitor, partial curve, poor fit]",–
CCc1cccc(CC)c1NC(=O)c1cc(S(=O)(=O)N2CCc3ccccc32)cn1C,–,inactive: -3.89%
COc1ccc(-c2ccc(NS(=O)(=O)c3ccc(F)c(C(F)(F)F)c3)cc2)nn1,"inconclusive: 26.9 µM [inhibitor, partial curve, poor fit]",–
CCc1ccc(C(=O)NNC(=O)CC2OC(=O)c3ccccc32)cc1 (stereo not given),"inconclusive: 19 µM [inhibitor, single point]",–
CCOC(=O)C1CCCN(CC(=O)Nc2c(C(=O)OC)[nH]c3ccc(Br)cc23)C1 (stereo not given),–,inactive: -4.76%
N#Cc1nc(/C=C/c2ccccc2)oc1NCCCN1CCOCC1,"inconclusive: 21.3 µM [inhibitor, single point]",–
CCOC(=O)/C=C(/C)N1N=C(c2ccc(OC)cc2)CC1c1cccc([N+](=O)[O-])c1 (stereo not given),"inconclusive: 30.1 µM [inhibitor, partial curve, poor fit]",–
Cc1cccc(NC(=O)c2cc(Cl)sc2Cl)c1C,–,inactive: 5.07%
Cc1nc(C(C)N(C)Cc2nc(-c3ccc4c(c3)OCO4)no2)c(C)s1 (stereo not given),"inconclusive: 30.1 µM [inhibitor, partial curve, poor fit]",–
CC(=O)Nc1cccc(-c2nn[nH]n2)c1,–,inactive: -0.772%
COc1cccc(OCc2nc3ccccc3n2CCOc2ccccc2)c1,"inconclusive: 16.9 µM [inhibitor, partial curve]",–
CC(Oc1ccc2c(c1)oc(=O)c1ccccc12)C(=O)NC(Cc1c[nH]c2ccc(O)cc12)C(=O)O (stereo not given),active: 26.9 µM,–
CCOc1ccc(-n2c(C)nc3cc(C(=O)NCCC4=CCCCC4)ccc32)cc1,"inconclusive: 15.1 µM [inhibitor, partial curve, poor fit]",–
COc1cccc(OC)c1C(=O)Nc1ccc(Br)c(C(=O)c2ccccc2)c1,–,inactive: -1.58%
Cc1ccc(CN2CCN(Cc3cn[nH]c3C3CCCCC3)CC2CCO)cc1 (stereo not given),–,inactive: 0.977%
CN(C)S(=O)(=O)c1cccc(NC(=O)c2n[nH]c(=O)c3ccccc23)c1,–,inactive: -12.2%
CC(C)(CNC(=O)CO/N=C1/C=C2CCC3C(C(O)C[C@@]4(C)C3CC[C@]4(O)C(=O)CO)[C@@]2(C)CC1)C(O)C(=O)O (stereo not given in full),–,inactive: -1.32%
COc1ccc(Nc2ncc(C(=O)N3CCC(C(N)=O)CC3)c3ccccc23)cc1,–,inactive: -6.22%
CCOC(=O)/C(C(=O)Nc1ccc(Br)cc1)=C1/NC(C)(C)Cc2ccccc21,"inconclusive: 16.9 µM [inhibitor, partial curve]",–
C=CCN1C(=O)c2ccc(C(=O)NCCOc3ccccc3F)cc2C1=O,"inconclusive: 21.3 µM [inhibitor, single point]",–
OCCNc1nc(-c2ccccc2)nc2c1oc1ccccc12,"inconclusive: 23.9 µM [inhibitor, partial curve]",–
COc1ccc(-c2nc(Cn3c(SCc4ccc(C)cc4)nc4cccnc43)c(C)o2)cc1OC,active: 6.01 µM,–

Structure (SMILES),Potency,"activity change, negative = inhibition"
CCOc1cccc(C(=O)Nc2ccc(S(=O)(=O)Nc3cc(C)on3)cc2)c1,"inconclusive: 37.9 µM [inhibitor, partial curve, poor fit]",–
CCn1c(O)c(/C=C2\C=Nc3ccccc32)sc1=Nc1ccccc1,"inconclusive: 23.9 µM [inhibitor, single point]",–
Clc1ccc(-c2cc(-c3nnc4n3CCCCC4)c3ccccc3n2)cc1,"inconclusive: 21.3 µM [inhibitor, partial curve, poor fit]",–
CC(=O)Nc1ccc(NC(=O)c2sc(-c3ccccc3)nc2C)cc1,"inconclusive: 23.9 µM [inhibitor, partial curve, poor fit]",–
O=[N+]([O-])c1ccc(-c2cnc3ccccc3n2)cc1,"inconclusive: 21.3 µM [inhibitor, partial curve]",–
COc1nc(-c2ccccc2)ccc1-c1noc(C)n1,"inconclusive: 23.9 µM [inhibitor, single point]",–
COc1ccc(C)cc1-n1nnnc1SCn1nnc2ccccc2c1=O,–,inactive: -2.99%
COc1ccc(CCNC(=O)c2cnn3c(C(F)F)cc(C)nc23)cc1OC,–,inactive: 1.27%
Cc1nc2cc(C(=O)OCC(=O)NC3CCS(=O)(=O)C3)ccc2n1-c1ccccc1 (stereo not given),"inconclusive: 23.9 µM [inhibitor, single point]",–
c1ccc(CSc2ccc(-c3cccs3)nn2)cc1,active: 1.9 µM,–
Cc1ccc(-n2[nH]c3c4c(ccc3c2=O)C(=O)c2ccccc2C4=O)cc1,–,inactive: 1.1%
Cc1ccc(-c2nnc(SCCC(=O)N3CCOCC3)o2)cc1,active: 19 µM,–
Cc1cccc(C)c1OCC(=O)Nc1cccc(C(=O)O)c1,active: 2.13 µM,–
O=C(/C=C/Nc1ccc(F)cc1)c1ccc(Oc2ncccn2)cc1,"inconclusive: 1.35 µM [inhibitor, full curve]",–
CC1(C)CC(=O)c2sc(NS(=O)(=O)c3ccc(Br)cc3)nc2C1,"inconclusive: 26.9 µM [inhibitor, partial curve]",–
CCCS(=O)(=O)c1ncc(Cl)c(C(=O)Nc2scc(-c3ccccc3)c2C(=O)OCC)n1,"inconclusive: 6.01 µM [inhibitor, partial curve, poor fit]",–
COc1cc2c(cc1OC)CN(C(=O)/C=C/c1ccc(F)cc1)CC2,"inconclusive: 37.9 µM [inhibitor, partial curve, poor fit]",–
CC(=O)Nc1ccc(-c2cn3c(n2)SCC3)cc1,"inconclusive: 21.3 µM [inhibitor, partial curve]",–
CC(C)c1ccccc1OCC(=O)N(C)CC(=O)Nc1ccc(F)cc1,–,inactive: -0.398%
Cc1cccc(-c2noc(-c3cc4ccccc4oc3=O)n2)c1,active: 1.35 µM,–
Cc1ccc(OC(=O)Nc2ccccc2)cc1,"inconclusive: 33.8 µM [inhibitor, single point]",–
COc1cc(C(=O)NNC(=S)Nc2ccc(S(N)(=O)=O)cc2)cc(OC)c1OC,"inconclusive: 21.3 µM [inhibitor, single point]",–
CCn1nc(C)c(/C=N/NC(=O)c2ccc3c(c2)c(C)c(C)n3Cc2ccccc2)c1C,–,inactive: -1.09%
COc1ccc(CNC(=O)Cn2nnc3ccccc3c2=O)cc1,"inconclusive: 15.1 µM [inhibitor, partial curve]",–

Structure (SMILES),Potency,"activity change, negative = inhibition"
Cc1cccc(C(=O)N/N=C/C(C)Cc2ccc3c(c2)OCO3)c1 (stereo not given),"inconclusive: 26.9 µM [inhibitor, single point]",–
Nc1n[nH]c(N)c1N=Nc1ccc(Cl)cc1Cl,active: 13.5 µM,–
CCOC(=O)NC(=O)CSc1nc(C)cc(C)c1C#N,"inconclusive: 12 µM [inhibitor, partial curve]",–
O=C(Nc1ccccc1Cl)/C(Cl)=C(\Cl)S(=O)c1ccccc1 (stereo not given),"inconclusive: 23.9 µM [inhibitor, single point]",–
CN(C)Cc1c(C(=O)N/N=C/CCc2ccccc2)nnn1-c1nonc1N,–,inactive: 1.78%
COc1ccc(OC)c(CCNC(=O)c2sc3nc4n(c(=O)c3c2C)CCC4)c1,"inconclusive: 37.9 µM [inhibitor, partial curve, poor fit]",–
CSc1nsc(SC)c1C(=O)Nc1ccc(C(C)(C)C)cc1,active: 10.7 µM,–
Cc1cc(C)cc(NC(=O)CCc2c(C)nn(-c3ccc(N4CCCC4)nn3)c2C)c1,"inconclusive: 21.3 µM [inhibitor, partial curve, poor fit]",–
O=C(Nc1cccnc1)c1ccc(COc2ccccc2Cl)o1,"inconclusive: 37.9 µM [inhibitor, single point]",–
CCC(Sc1nc2cc(OC)c(OC)cc2c(=O)n1CCc1ccc(Cl)cc1)C(=O)NCCOC (stereo not given),–,inactive: 2.27%
Cc1nnc(N/N=C/c2c[nH]c3ccccc23)[nH]c1=O,"inconclusive: 26.9 µM [inhibitor, partial curve, poor fit]",–
Cc1ccc(-c2csc(N=C(N)N)n2)cc1,active: 15.1 µM,–
O=C(O)c1cccc(NS(=O)(=O)c2ccc(-c3ccc(S(=O)(=O)Nc4cccc(C(=O)O)c4)cc3)cc2)c1,"inconclusive: 19 µM [inhibitor, partial curve]",–
Cc1ccc(NC(=O)N(Cc2cn(C)c3ccccc23)C2CCCCC2)cc1C,"inconclusive: 26.9 µM [inhibitor, partial curve, poor fit]",–
COc1ccccc1/C=N/NC(=O)c1cccc(OC(F)(F)C(F)F)c1,active: 12 µM,–
COc1ccc(/C=C2\SC(=O)N(CCc3nnc(N)s3)C2=O)cc1,active: 1.9 µM,–
O=C(CNS(=O)(=O)c1ccccc1F)OCC(=O)c1c[nH]c2ccccc12,"inconclusive: 37.9 µM [inhibitor, single point]",–
Cc1ccc2oc(C(=O)N3CCCCCC3)c(C)c2c1,active: 15.1 µM,–
O=C(CSc1ccc2ccccc2n1)c1ccccc1,"inconclusive: 26.9 µM [inhibitor, partial curve]",–
Cc1noc(C)c1COC(=O)C1CCN(S(=O)(=O)c2c(Cl)cccc2Cl)CC1,–,inactive: 3.27%
C=CCn1c(SCC(=O)Nc2ccc3c(c2)OCCO3)nnc1-c1ccco1,"inconclusive: 37.9 µM [inhibitor, single point]",–
O=C(Nc1ccc2c(c1)OCO2)c1noc2c1CCCCC2,active: 2.13 µM,–
